# Results reported in PubChem BioAssay (Tox21).
# This list was built around the results that the source calls inconclusive (neither active nor inactive); the mix of calls is not that of the screen. For part of these data: Potencies beside an inconclusive call are fits to weak or partial responses and may not hold up. Some structures have more than one record in an assay (separate samples or runs), and their calls can disagree. Active and inactive are the calls of the source. Unless noted, the call rests on the fitted dose curve; in most records, active means well fitted curve in the direction sought with a large enough effect in the repeat runs; inconclusive means weak or mixed curves; inactive means no such curve, though single readings can be large; an effect the other way counts as inactive or inconclusive.
# What was measured:
# [1] = A CellTox Green Cytotoxicity Assay to monitor cytotoxicity in HepG2 cells - 32 hour (AID 1224883); conditions: CellTox Green fluorescence; series mostly up to 76.8 µM; further: nearly all actives have a fitted effect of over 50% in size; further: potency means the concentration at half of the fitted maximal effect
# In short: (§1)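 Real-time cytotoxicity: fluorescence of a cell-impermeant cyanine dye binding DNA of dead HepG2 cells, measured repeatedly (0–40 h) during compound exposure at 37 C. Cells seeded 600/well with reagent, dosed after 5 h.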
# [2] = A CellTox Green Cytotoxicity Assay to monitor cytotoxicity in HEK293 cells - 8 hour (AID 1224884); conditions: CellTox Green fluorescence; series mostly up to 76.8 µM; further: potency means the concentration at half of the fitted maximal effect; nearly all actives have a fitted effect of over 35% in size
# In short: (§2)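 Fluorescence from a DNA-binding dye excluded by viable cells was measured repeatedly in the same HEK293 wells (600 cells/well) during continuous compound exposure at 37 C. Each assay gives one read point: 0, 8, 16, 24, 32 or 40 h.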
# [3] = qHTS RealTime-Glo MT Cell Viability Assay in HepG2 cells - 16 hour (AID 1224885); conditions: RealTime-Glo luminescence; series mostly up to 76.8 µM; further: potency means the concentration at half of the fitted maximal effect; nearly all actives have a fitted effect of over 50% in size
# In short: (§3)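 Real-time, nonlytic viability: 600 HepG2 cells/well mixed with NanoLuc enzyme plus prosubstrate; 5 h settle, compound (DMSO) added by pintool; luminescence monitored over 40 h at 37 C.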
# [4] = qHTS RealTime-Glo MT Cell Viability Assay in HEK293 cells - 24 hour (AID 1224886); conditions: RealTime-Glo luminescence; series mostly up to 76.8 µM; further: potency means the concentration at half of the fitted maximal effect; nearly all actives have a fitted effect of over 50% in size
# In short: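 Cells + reagent dispensed (600 cells/well, HEK293) → 5 h at 37 C/5% CO2 → 23 nL compound in DMSO pinned → 40 h at 37 C → luminescence read at 0, 8, 16, 24, 32, 40 h.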
# [5] = A CellTox Green Cytotoxicity Assay to monitor cytotoxicity in HEK293 cells - 16 hour (AID 1224888); conditions: CellTox Green fluorescence; series mostly up to 76.8 µM; further: potency means the concentration at half of the fitted maximal effect; nearly all actives have a fitted effect of over 35% in size
# In short: as §2
# [6] = A CellTox Green Cytotoxicity Assay to monitor cytotoxicity in HepG2 cells - 8 hour (AID 1224890); conditions: CellTox Green fluorescence; series mostly up to 76.8 µM; further: on the % scale 0 is the no-effect control and ±100 the full control effect; nearly all actives have a fitted effect of over 45% in size
# In short: as §1
# [7] = target: Androgen receptor (Homo sapiens) (UniProt P10275); experiment: qHTS assay to identify small molecule antagonists of the androgen receptor (AR) signaling pathway using the MDA cell line in the presence of 0.5 nM R1881 (AID 1259243); conditions: MDA-kb2 MMTV-luciferase, R1881 0.5 nM, 16 h; series mostly up to 92.4 µM; further: potency means the concentration at half of the fitted maximal effect; nearly all actives have a fitted effect of over 50% in size
# UniProt P10275, sequence (P10275 whole entry, looked up): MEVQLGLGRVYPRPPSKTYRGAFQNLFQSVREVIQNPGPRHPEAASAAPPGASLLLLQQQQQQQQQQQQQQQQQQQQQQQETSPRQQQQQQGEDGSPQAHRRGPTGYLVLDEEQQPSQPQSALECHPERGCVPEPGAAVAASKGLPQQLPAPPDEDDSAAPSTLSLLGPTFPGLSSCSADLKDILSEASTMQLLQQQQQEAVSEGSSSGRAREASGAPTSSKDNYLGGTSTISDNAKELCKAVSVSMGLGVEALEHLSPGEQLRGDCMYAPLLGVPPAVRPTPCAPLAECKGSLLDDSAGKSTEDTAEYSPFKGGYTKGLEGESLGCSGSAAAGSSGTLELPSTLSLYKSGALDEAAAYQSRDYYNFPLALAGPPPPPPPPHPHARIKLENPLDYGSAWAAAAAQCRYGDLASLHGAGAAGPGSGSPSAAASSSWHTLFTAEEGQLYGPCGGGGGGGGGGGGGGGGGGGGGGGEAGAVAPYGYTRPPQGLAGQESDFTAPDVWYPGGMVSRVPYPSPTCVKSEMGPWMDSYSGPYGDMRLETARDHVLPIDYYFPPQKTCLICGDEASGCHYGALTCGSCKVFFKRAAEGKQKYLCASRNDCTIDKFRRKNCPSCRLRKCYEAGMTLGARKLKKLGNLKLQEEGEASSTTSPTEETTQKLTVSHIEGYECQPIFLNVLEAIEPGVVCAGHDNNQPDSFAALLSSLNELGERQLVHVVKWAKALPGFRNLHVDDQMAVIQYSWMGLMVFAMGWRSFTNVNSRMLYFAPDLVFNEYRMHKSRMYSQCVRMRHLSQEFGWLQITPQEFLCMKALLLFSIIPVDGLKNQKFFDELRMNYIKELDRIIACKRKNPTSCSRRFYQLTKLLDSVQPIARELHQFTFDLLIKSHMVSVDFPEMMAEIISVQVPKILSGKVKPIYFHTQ
# In short: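 Luminescent reporter readout (ONE-Glo, 30 min, room temperature) after 16 hr co-treatment of MDA-kb2 cells with test compounds and 0.5 nM R1881 final, at 37C without CO2. The MMTV-driven luciferase responds to both AR and GR.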
# [8] = qHTS assay to identify small molecule agonists of the sonic hedgehog signaling (Shh) pathway - cell viability counter screen (AID 1259366); conditions: NIH/3T3 Gli1-Luc viability, CellTiter-Fluor, 24 h; series mostly up to 92.4 µM
# In short: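 In quantitative high-throughput format, 3T3 Gli1-Luc cells were exposed to compounds for 24hr and multiplexed for viability using CellTiter-Fluor, incubated 1hr at 37C before the fluorescence read.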
# [9] = qHTS RealTime-Glo MT Cell Viability Assay in HEK293 cells - 8 hour (AID 1224887); conditions: RealTime-Glo luminescence; series mostly up to 76.8 µM
# In short: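 Luminescence, which tracks viable cell number through reduction of the prosubstrate to a NanoLuc substrate, was read over continuous 37 C culture. Cells (600/well) were premixed with reagent and rested 5 h before 23 nL of compound in DMSO was pinned.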
# [10] = target: Estrogen receptor (Homo sapiens) (UniProt P03372); experiment: qHTS assay to identify small molecule antagonists of the estrogen receptor alpha (ER-alpha) signaling pathway using the BG1 cell line in the presence of 0.1 nM 17-beta-estradiol (AID 1259244); conditions: VM7Luc4E2 (BG1) ERE-luciferase, antagonist mode, 0.1 nM E2, 22 h; series mostly up to 92.4 µM
# UniProt P03372, sequence (P03372 whole entry, looked up): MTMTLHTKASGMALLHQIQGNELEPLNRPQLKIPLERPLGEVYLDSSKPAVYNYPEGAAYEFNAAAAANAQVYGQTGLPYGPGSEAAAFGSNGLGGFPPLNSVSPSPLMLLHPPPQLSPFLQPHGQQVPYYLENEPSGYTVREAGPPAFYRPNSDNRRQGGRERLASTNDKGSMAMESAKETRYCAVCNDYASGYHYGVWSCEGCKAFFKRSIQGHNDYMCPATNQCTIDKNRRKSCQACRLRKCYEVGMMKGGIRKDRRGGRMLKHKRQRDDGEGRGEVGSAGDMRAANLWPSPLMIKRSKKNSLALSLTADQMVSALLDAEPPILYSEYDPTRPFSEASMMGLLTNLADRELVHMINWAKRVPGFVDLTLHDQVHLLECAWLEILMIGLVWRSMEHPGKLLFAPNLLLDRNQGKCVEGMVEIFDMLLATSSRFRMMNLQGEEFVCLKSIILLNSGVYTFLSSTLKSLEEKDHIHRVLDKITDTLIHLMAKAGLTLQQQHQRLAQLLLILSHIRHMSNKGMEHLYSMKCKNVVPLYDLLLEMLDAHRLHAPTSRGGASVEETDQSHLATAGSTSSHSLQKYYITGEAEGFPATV
# In short: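 Luciferase luminescence (ONE-Glo, 30 min at room temperature) was read after 22 hr at 37C exposure to compounds plus 17beta-estradiol at 0.1 nM final. Cells were VM7Luc4E2 with endogenous ER-alpha and an ERE-driven luciferase, pre-cultured 5 days in hormone-depleted medium.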
# [11] = target: Estrogen receptor beta (Homo sapiens) (UniProt Q92731); experiment: qHTS assay to identify small molecule agonists of the estrogen receptor beta (ER-beta) signaling pathway (AID 1259377; active means well fitted activation curve with a large enough effect in the signal ratio in the repeat runs, not every such curve was filed as active; inconclusive means weak or mixed curves, or effect the other way; the % refers to the signal ratio; further: on the % scale 0 is the no-effect control and ±100 the full control effect); conditions: ER-beta-UAS-bla HEK293T, beta-lactamase FRET ratio, 16 h; activation: at 92.4 µM (top of the series) unless noted
# UniProt Q92731, sequence (Q92731 whole entry, looked up): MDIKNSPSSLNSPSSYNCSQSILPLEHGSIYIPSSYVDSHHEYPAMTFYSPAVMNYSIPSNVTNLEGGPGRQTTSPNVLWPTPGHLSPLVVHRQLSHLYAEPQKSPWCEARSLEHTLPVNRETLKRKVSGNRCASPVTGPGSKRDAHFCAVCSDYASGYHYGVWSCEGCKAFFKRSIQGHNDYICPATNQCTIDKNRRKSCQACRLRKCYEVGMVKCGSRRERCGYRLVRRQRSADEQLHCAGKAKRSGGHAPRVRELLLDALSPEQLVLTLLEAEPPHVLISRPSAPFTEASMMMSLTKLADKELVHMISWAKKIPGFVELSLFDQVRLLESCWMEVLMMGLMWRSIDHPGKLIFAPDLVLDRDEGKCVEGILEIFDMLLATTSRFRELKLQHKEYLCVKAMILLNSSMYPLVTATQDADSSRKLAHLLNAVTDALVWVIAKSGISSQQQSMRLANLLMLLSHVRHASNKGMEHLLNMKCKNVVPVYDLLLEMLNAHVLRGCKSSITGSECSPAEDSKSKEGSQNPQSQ
# In short: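 Reporter cells (HEK293T, ER-beta-UAS-bla) receive compounds or DMSO after a 6 hr pre-incubation. They then incubate 16 hr at 37C/5% CO2, and fluorescence from LiveBLAzer B/G substrate is measured after 2 hours at room temperature.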
# [12] = qHTS RealTime-Glo MT Cell Viability Assay in HepG2 cells - 0 hour (AID 1224889); conditions: RealTime-Glo luminescence; series mostly up to 76.8 µM
# In short: as §3
# [13] = qHTS assay to identify small molecule antagonists of the androgen receptor (AR) signaling pathway using the MDA cell line in the presence of 0.5 nM R1881 - cell viability counter screen (AID 1259242); conditions: MDA-kb2 viability, CellTiter-Fluor protease fluorescence, 16 h; series mostly up to 92.4 µM; further: potency means the concentration at half of the fitted maximal effect; nearly all actives have a fitted effect of over 45% in size
# In short: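 Live-cell protease activity was measured by CellTiter-Fluor fluorescence after 30 min. Before that, MDA-kb2 MMTV-luciferase cells had 16 hr at 37C without CO2, exposed to test compounds and 0.5 nM R1881 final.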
# [14] = qHTS assay to identify small molecule antagonists of the sonic hedgehog signaling (Shh) pathway - cell viability counter screen (AID 1259367); conditions: NIH/3T3 Gli1-Luc viability, CellTiter-Fluor, 24 h; series mostly up to 92.4 µM; further: potency means the concentration at half of the fitted maximal effect; nearly all actives have a fitted effect of over 55% in size
# In short: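 Tox21 library chemicals were tested on a Gli1-Luc NIH/3T3 clone (2,000 cells/well) stimulated by conditioned medium; viability was quantified as fluorescence from CellTiter-Fluor reagent added at 23 hr.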
# [15] = qHTS assay to identify small molecule antagonists of the sonic hedgehog signaling (Shh) pathway (AID 1259369; calls by dose curve; further: potency means the concentration at half of the fitted maximal effect; nearly all actives have a fitted effect of over 45% in size); conditions: NIH/3T3 Gli1-Luc reporter, Shh antagonist, luminescence 24 h; series mostly up to 92.4 µM
# In short: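 Antagonist mode: compound added to 3T3 Gli1-Luc cells followed by conditioned-medium stimulation, 24 h at 37 C, 5% CO2. Inhibition taken as loss of Gli1-driven luciferase luminescence.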
# Tags describe the fitted curve by direction and shape.
structure (smiles),measurement,setting,value
O=C(Cl)c1ccc(Cl)cc1Cl,Potency,[1],active: 54.9 µM
same,Potency,[2],"inconclusive: 49 µM [activator, partial curve, poor fit]"
same,Potency,[3],"inconclusive: 54.9 µM [cytotoxic, single point]"
same,Potency,[4],"inconclusive: 54.9 µM [cytotoxic, single point]"
same,Potency,[5],"inconclusive: 54.9 µM [activator, single point]"
same,Potency,[6],inactive
same,Potency,[7],"inconclusive: 68.6 µM [inhibitor, single point]"
same,Potency,[8],"inconclusive: 68.6 µM [cytotoxic, single point]"
Cc1c(C)c([N+](=O)[O-])c(C(C)(C)C)c([N+](=O)[O-])c1C,Potency,[1],inactive
O=C1c2ccccc2C(=O)C1c1ccc2ccccc2n1,Potency,[1],inactive
same,Potency,[2],"inconclusive: 27.3 µM [activator, single point]"
same,Potency,[4],"inconclusive: 3.85 µM [cytotoxic, full curve]"
same,Potency,[9],"inconclusive: 3.06 µM [cytotoxic, full curve]"
same,Potency,[5],"inconclusive: 27.3 µM [activator, single point]"
same,Potency,[10],"inconclusive: 24.1 µM [inhibitor, single point]"
same,Potency,[11],inactive
CC(C)(C)C1CCCCC1=O (configuration not stated),Potency,[1],inactive
Oc1ccc(N=Nc2ccccc2)cc1,Potency,[1],"inconclusive: 55.7 µM [activator, single point]"
same,Potency,[2],"inconclusive: 39.4 µM [activator, partial curve]"
same,Potency,[4],active: 17.6 µM
same,Potency,[9],active: 19.8 µM
same,Potency,[5],"inconclusive: 55.7 µM [activator, single point]"
same,Potency,[12],inactive
same,Potency,[13],"inconclusive: 49.2 µM [cytotoxic, partial curve]"
same,Potency,[14],"inconclusive: 34.8 µM [cytotoxic, partial curve]"
same,activation,[11],inconclusive: -1.53%
CCCCOC(=O)CC,Potency,[1],"inconclusive: 21.8 µM [activator, single point]"
IC(I)I,Potency,[1],"inconclusive: 54.9 µM [activator, single point]"
same,Potency,[2],"inconclusive: 24.5 µM [activator, single point]"
same,Potency,[3],"inconclusive: 48.9 µM [cytotoxic, single point]"
same,Potency,[15],active: 15.3 µM
Clc1cc(Cl)c(Cl)cc1Cl,Potency,[1],inactive
O=C1NC(=O)[C@@H]2CC=CC[C@H]12,Potency,[1],"inconclusive: 43.6 µM [activator, partial curve, poor fit]"
CCC(C)SSC(C)CC (configuration not stated),Potency,[1],inactive
same,Potency,[2],"inconclusive: 54.9 µM [activator, single point]"
CCCCCCCCCCCC(=O)OCC(O)CO (configuration not stated),Potency,[1],inactive
NCC1(Cc2noc(=O)[nH]2)CCCCC1,Potency,[1],inactive
CN(C)C(=O)Oc1cccc([N+](C)(C)C)c1,Potency,[1],inactive
CC(C)(C)c1ccc(OC2CCCCC2O)cc1 (configuration not stated),Potency,[1],"inconclusive: 61.6 µM [activator, single point]"
same,Potency,[2],"inconclusive: 61.6 µM [activator, partial curve, poor fit]"
same,Potency,[4],active: 54.9 µM
same,Potency,[9],"inconclusive: 49 µM [cytotoxic, partial curve]"
same,Potency,[5],"inconclusive: 49 µM [activator, partial curve]"
same,Potency,[10],"inconclusive: 68.6 µM [inhibitor, single point]"
same,Potency,[14],"inconclusive: 43.3 µM [cytotoxic, partial curve, poor fit]"
CCCCNS(=O)(=O)c1ccc(C)cc1,Potency,[1],active: 4.9 µM
NS(=O)(=O)c1ccc(NC(=O)CCC(=O)O)cc1,Potency,[1],inactive
C=CCCCCCCCCC(=O)OCCCC,Potency,[1],"inconclusive: 21.9 µM [activator, single point]"
CCCCCCCCCCC=CC1CC(=O)OC1=O (configuration not stated),Potency,[1],"inconclusive: 62 µM [activator, single point]"
O=C(NC(Cc1cc(=O)[nH]c2ccccc12)C(=O)O)c1ccc(Cl)cc1 (configuration not stated),Potency,[1],inactive
CCCc1ccc(OCC(=O)N2CCN(C(=O)COc3ccc(CCC)cc3OC)CC2)c(OC)c1,Potency,[1],active: 23.9 µM
same,Potency,[2],"inconclusive: 26.8 µM [activator, single point]"
same,Potency,[3],"inconclusive: 21.3 µM [cytotoxic, partial curve]"
same,Potency,[9],active: 9.52 µM
same,Potency,[15],"inconclusive: 33.5 µM [inhibitor, single point]"
Cc1ccc(Cl)cc1N,Potency,[1],inactive
c1ccc2[nH]cnc2c1,Potency,[1],"inconclusive: 21.9 µM [activator, single point]"
